# According to PubChem BioAssay AID743279 (National Center for Advancing Translational Sciences (NCATS), 2014):
# Out of some 360,000 compounds screened, about 17,000 (4.7%) were called active. Inconclusive means that the source gave no clear call. Such entries were picked first, then a sample of the others. Cut-off read from the data, not from the text of the source: active = activity change below about -50%; inconclusive = mostly about -30% to -49%; inactive = weaker than that.
# Assay: qHTS for Inhibitors of Inflammasome Signaling: IL-1-beta AlphaLISA Primary Screen
# Details: THP-1 LPS/ATP IL-1B secretion, 16 h; at 57.5 µM, active compounds read low
# Summary of the method: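 Secreted IL-1B measured by AlphaLISA bead assay after 16 h compound exposure of THP-1 cells; compounds (final up to 57.5 uM) added 1 h before LPS (250 ng/mL) and ATP (1.25 mM) stimulation; lower signal means less secretion.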
# % is set by controls: 0 for no effect and ±100 for the full control effect.
row,SMILES,activity change
1,COc1ccc(CC(=O)OCC(=O)Nc2c(C)n(C)n(-c3ccccc3)c2=O)cc1OC,inactive: 32.3%
2,S=C(NCCSCc1ccc(Cl)cc1)Nc1ccccc1,inconclusive: -46.3%
3,Nc1nc(Nc2ccccc2)nc(N2CCCC2)c1[N+](=O)[O-],inconclusive: -32.3%
4,O=C(Nc1ccc(N2CCN(C(=O)c3ccco3)CC2)c(Cl)c1)c1cccnc1,active: -67.1%
5,CCS(=O)(=O)c1nc(S(=O)(=O)c2ccc(Cl)cc2)c(NCCCN2CCOCC2)s1,active: -51.3%
6,Cc1cc(C)n2nc(CNS(=O)(=O)c3cccc([N+](=O)[O-])c3)nc2n1,inactive: 9.49%
7,O=c1[nH]c(C2CCN(S(=O)(=O)c3cccc(Cl)c3)CC2)nc2c1nnn2Cc1ccccc1,inconclusive: -33.6%
8,COc1ccc(NC(=O)CSc2nnc(-c3ccccc3Cl)n2Cc2ccco2)c(OC)c1,inconclusive: -40.1%
9,CC(=O)c1cnc2nc(SCc3ccccc3)nn2c1C,inactive: -23%
10,Cc1ccc(C2CC(c3ccccc3Cl)n3nc(N)nc3N2)cc1 (stereo unspecified),inconclusive: -35.3%
11,CC(CCc1ccccc1)NCc1cccc2ccccc12 (stereo unspecified),inconclusive: -31.9%
12,CC1CCC2(CC1)NC(=O)N(CC(=O)N1CCN(S(=O)(=O)c3ccccc3)CC1)C2=O (stereo unspecified),inactive: 4.68%
13,CCOC(=O)C(C)Oc1cccc2c(=O)n(CC(=O)NCc3ccccc3)ccc12 (stereo unspecified),active: -98.2%
14,O=C(COc1ccccc1Cl)Nc1ccc(NC(=O)c2ccco2)cc1,active: -59.4%
15,O=C(O)/C=C/C(=O)N1CCN(c2cccc(Cl)c2)CC1,inactive: -18.5%
16,Cc1ccc(F)cc1NC(=O)CCNC(=O)c1ccc([N+](=O)[O-])cc1,active: -74.1%
17,Cc1cccc(NC(=O)CNC(=O)c2ccccc2Cl)n1,inconclusive: -32.7%
18,CC(C)c1nn2c(=O)cc(O)nc2s1,inactive: -3.62%
19,CC(C)C(N)c1csc(NC(=O)Nc2cccc(Cl)c2)n1 (stereo unspecified),inconclusive: -48.8%

row,SMILES,activity change
1,Cc1cccc(CSc2nnc([C@@H]3CCCN3C(=O)OC(C)(C)C)o2)c1,inconclusive: -31.1%
2,Cc1ccc(CNS(=O)(=O)c2ccc3c(c2)n(C)c(=O)c(=O)n3C)cc1,inactive: 23.9%
3,O=C(Cc1c(F)cccc1Cl)NCCc1c[nH]c2ccccc12,inconclusive: -38.8%
4,COC(=O)[C@@]12C[C@@H](CC(=O)NCCc3ccccc3OC)C(=O)N(Cc3ccccc3)C1=CCC(C)(C)C2,inconclusive: -41.1%
5,CC1CCc2sc(C(=O)Nc3ccc(C(N)=O)cc3)cc2C1 (stereo unspecified),active: -70.3%
6,Cn1cnnc1Sc1ccc(C(F)(F)F)cc1[N+](=O)[O-],inconclusive: -39.3%
7,CCCOc1ccc(/C=c2\sc3ncnn3c2=O)cc1,inconclusive: -38.5%
8,O=C(Nc1ccc(S(=O)(=O)N2CCc3ccccc32)cc1)c1ccc2c(c1)OCO2,inconclusive: -36.5%
9,Cc1ccc(N(CC(=O)Nc2ccc(-c3nc4ccc(C)cc4s3)cc2)S(C)(=O)=O)cc1,inactive: 4%
10,Cc1cccc(-n2c(=S)[nH]c3sc4c(c3c2=O)CCc2ccccc2-4)c1,inactive: -0.269%
11,O=C(Nc1cccc(S(=O)(=O)N2CCCC2)c1)c1ccc2ccccc2n1,inconclusive: -45.9%
12,CC(=O)C(=Cc1ccc(O)cc1)C(C)=O,inconclusive: -40.5%
13,Oc1nc(Nc2ccc(F)cc2)sc1/C=C1\C=Nc2ccccc21,active: -78.1%
14,O=C(Nc1ccn(Cc2ccc(Cl)cc2)n1)c1ccccc1,inconclusive: -43.3%
15,COc1cccc(-c2cc3nc(Nc4ccc(OC)c(OC)c4)n(C)c(=O)c3s2)c1,inconclusive: -45.8%
16,O=C1Nc2ccccc2SC1=Cc1ccccc1,inconclusive: -43.9%
17,O=C(NCCc1ccccc1)c1cccc2c(-c3cccnc3)coc12,inactive: -14.7%
18,CC1=CC2=NC(=O)/C(=C\c3cccn3CCOc3ccccc3C)C(=N)N2O1,inconclusive: -32.2%
19,CN(C)c1ccc(/C=N/NC(=O)CN2CCCCC2)cc1Br,inactive: 15.4%

row,SMILES,activity change
1,COc1c(Cl)cccc1-c1cn2ccc(C)cc2n1,inconclusive: -49.1%
2,CC(C)NS(=O)(=O)c1ccc(CCC(=O)NCc2ccncc2)cc1,inactive: 14.3%
3,Cc1cc(C(=O)Nc2nc3c(s2)CCCC3)cs1,inconclusive: -35%
4,Cc1c(-c2csc(N)n2)c2ccccc2n1C,inconclusive: -34.9%
5,CN(C)S(=O)(=O)c1ccc(NC(=O)c2cc(F)c(F)cc2Cl)cc1,inconclusive: -39.9%
6,O=C(Nc1ccccc1)Nc1nnc(-c2ccccc2)s1,inconclusive: -38.7%
7,COc1ccc(-c2ccc(Nc3ccc(S(=O)(=O)N4CCCC4)cc3)nn2)cc1OC,inconclusive: -30.5%
8,O=C(Nc1cc2c(cc1Br)OCCO2)c1cccnc1,inconclusive: -42.8%
9,CCCCNC(=O)C[C@@H]1C[C@@]2(C(=O)OCC)CCC=C2N(Cc2ccc(Cl)cc2Cl)C1=O,inconclusive: -40%
10,CC(C)(CNC(=O)c1cc(-c2ccc(Cl)s2)nc2ccccc12)N1CCOCC1,inconclusive: -41%
11,CC1=NOC(=O)/C1=C\c1ccc2c(c1)OCO2,active: -96.5%
12,C[C@H](CO)N1C[C@H](C)[C@@H](CN(C)C(=O)CN2CCOCC2)Oc2ncc(-c3cncnc3)cc2C1=O,inconclusive: -47.1%
13,O=C(CSc1nnnn1-c1ccccc1)Nc1ncc2c(n1)CC(c1ccccc1)CC2=O (stereo unspecified),inactive: 27.5%
14,Cc1ccnc2c(N3C(=O)C4C5c6ccccc6C(c6ccccc65)C4C3=O)cccc12 (stereo unspecified),inconclusive: -47%
15,COc1ccccc1N1CCN(C(=O)c2ccc3[nH]c4c(c3c2)CCCC4)CC1,active: -75.7%
16,Cc1ccc(NC(=O)Cn2ccsc2=N)c([N+](=O)[O-])c1,inconclusive: -45.5%
17,CCO[C@@H]1OC(C(=O)N2CCCCCCC2)=C[C@H](c2csc3ccccc23)[C@H]1CCCO,inconclusive: -35.4%
18,Cc1ccccc1OCc1nnc(SCc2cc(=O)[nH]c3ccccc23)n1-c1ccccc1,inconclusive: -43.4%
